In the supplement of paper PMC11417369:
± gives the standard deviation of the averaged measurements. The list shows a part of the results.

Test system: PfAP2-LT AP2 domain (GST-tagged)
Experiment: gcPBM binding intensity (ln(normalized median fluorescence intensity)); higher = stronger DNA binding
Method in brief: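 After 1 h on an Agilent 4 × 180k array of primer-extended double-stranded 36-bp intergenic genomic probes and negative controls, bound GST-tagged P. falciparum DNA-binding domains were detected with Alexa488 anti-GST antibody and scanned at 488 nm. The domains had been expressed in E. coli, and binding took place in 1× PBS with 1% milk, 0.2 mg/ml BSA, 0.5% salmon testes DNA and 0.03% Triton X-100. Binding intensity is the highest Masliner-normalised natural-log median intensity across replicate spots of either probe orientation.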

Sequence | gcPBM binding intensity (ln)
CAATCATAGAAAAACAGTACGTGTAGCAAACATCCT [XGTACX_site4889] | 9.07 ± 0.29
AAAAAAAAAAAATATATATATATATATATATATATA [CACACA_negctrl_site1606] | 10 ± 0.22
TATATATATTATATATGTACATATATTTTTTTTTTT [XGTACX_site127] | 8.77 ± 0.49
ATTTATATTACAAAAAGTACACACATAAATAAATAC [XGTACX_site1827] | 9.06 ± 0.21
GAAAATATAAAAAAAAGTACATTTTCTCTAAATATA [XGTACX_site2441] | 8.53 ± 0.57
AAAAAGGGTATTATTACACACACGTAAATATTAAGA [CACACA_site4233] | 9.26 ± 0.47
AAAAAAAAATTATATACACACATATAAATATATATA [CACACA_site1197] | 8.79 ± 0.42
CTATATAATATGAGCACACATAAGATTTGGTGTTAT [CACACA_site744] | 8.93 ± 0.34
AAAATCTAGGTATTTATACACACTAAAATAATATAC [CACACA_site623] | 8.92 ± 0.4
CAAATACAGAAACACACACACATATACATATATATA [CACACA_site3498] | 9.77 ± 0.19
TATATATATATATGGGGTACAAATGGTCAGTATTAT [XGTACX_site1223] | 9.66 ± 0.21
AATATGTAATAGTGTACACATATATCTGTATTTATG [CACACA_site4252] | 9.02 ± 0.4
TTTAAATATAATTGGAGTACTTATAATATATATATA [XGTACX_site7247] | 8.39 ± 0.42
ATTACACATATAGTAGTGCAATAACTCCAAAAAAAA | 8.78 ± 0.42
ATGTTATTAAAAAAGGGTACACATCTTTTATGTTAA [XGTACX_site812] | 8.57 ± 0.31
TTTTAAAAAAAAAAAAAAAAAAAAAAAAAAAAAAAA [CACACA_negctrl_site1343] | 7.9 ± 0.23
TTTTAAAATTATTAGGTGCATATTTATTCTATATTT | 8.62 ± 0.47
TGTTTTTTTATTTTCACACATAATCCAATTATACAT [CACACA_site6070] | 8.95 ± 0.47
TGCAATGGAGCATAAAGTACATATAATTGTATTTTT [XGTACX_site7349] | 8.74 ± 0.47
AATACAGAGGAAAATACACACGTATATATATAAATA [CACACA_site9125] | 9.18 ± 0.46
TAGAATAATCCTTACACACACACACCCACGAATAAA [CACACA_site483] | 10.1 ± 0.2
ATCAACAAAACATACACACACATATATATATATATA [CACACA_site2989] | 10.32 ± 0.057
GCATCTCATTTGTGATGTACTATATTATCCGTTTTT [XGTACX_site7576] | 8.87 ± 0.43

Sequence | gcPBM binding intensity (ln)
TTTCTATATCTATTTAATTAACTTTTTATACTGATT [GTGCAC_negctrl_site415] | 8.65 ± 0.42
CACATAAAAAAATAAACACACATATGTATTTATATA [CACACA_site5718] | 8.91 ± 0.44
CATATCATTGATTATAGTACACATACCATTTTTTAT [XGTACX_site6572] | 8.91 ± 0.47
TTAAAAAAATATAGAGCATGCTAAAAATAAAAAAAT [TGCATGCA_site794] | 9.1 ± 0.62
AATAAAAATAATATAGTGCATAATATAAGGAAAAAA | 8.93 ± 0.45
CAACACTTAGATTTTAAGTTCACTGGTTAATATATA [CACACA_negctrl_site707] | 8.55 ± 0.38
AGGTCTATATAATAAGTGCATTTTTTTTTTTTTTTT [GTGCAC_site9664] | 8.6 ± 0.34
GTTATACTCATCAACACACACATACAACGTGGTGTA [CACACA_site4789] | 9.29 ± 0.33
AAAAAAAAAAAAAAATACAAGCACATTTATATAAGC [GTGCAC_negctrl_site695] | 8.67 ± 0.47
AGTAATATAATATAAGCACACGTGTATTTATTTAGG [CACACA_site7921] | 9.08 ± 0.44
TATATATCAATATTTACACACATGCGCCCACATAAA [CACACA_site7185] | 9.33 ± 0.42
AAATACATTAAAATGACATGCAGATATATATCAAAA [TGCATGCA_site477] | 9.01 ± 0.41
TATATGTTTGAATATACACACAACATATTTATATAT [CACACA_site7832] | 8.9 ± 0.41
AAAAAAAAAAAATATGTACACACATATATAATACAT [CACACA_site8473] | 9.09 ± 0.35
TTTTTTGTTAAAAGAGTGCAAATTTTTAAAGATTTG [GTGCAC_site9502] | 8.1 ± 0.46
CTATGCCCCATATAAACACACAAATAAAAAGAATAT [CACACA_site2681] | 9.09 ± 0.39
TTTTTTTCTTTTGGGAGTACCAACATTTTCACATAT [XGTACX_site1371] | 9.09 ± 0.56
TGAATAAAGATATATACACACATATAGGTATATATC [CACACA_site6870] | 9.01 ± 0.41
AAAAAAAAAAGACACACACACACAAATACATACACA [CACACA_site6472] | 10.2 ± 0.042
ATCTAAATAAAGTTAACACACACATAATATATATAT [CACACA_site8055] | 9.19 ± 0.4
TGCTTATATTTTTATACACACAAGATACTTTTTGTT [CACACA_site1535] | 9.04 ± 0.52
AATAAAAAGGAACACACACACACACGGATATAAATA [CACACA_site7658] | 10.3 ± 0.37
TCTTTGTAAATTTCTTGTACGTAAATTTTTTTTAGG [XGTACX_site7062] | 8.55 ± 0.35

Sequence | gcPBM binding intensity (ln)
TCATAGTATAGACACACACACACACGCATATAAATA [CACACA_site6915] | 9.92 ± 0.13
TATTTTACATCTTCTCACATTTTATCACTTTTTAAA [CACACA_negctrl_site330] | 8.71 ± 0.52
TGTATATATAAACATGCACACGTGGTTGTATATATA [CACACA_site9078] | 9.02 ± 0.25
AGAATTCGTTTAAAAAGTACATTCAATTTAATAATG [XGTACX_site6603] | 8.39 ± 0.45
TAGTATTAAAATATTTGTACTTATATGTATTATATA [XGTACX_site538] | 8.66 ± 0.44
TGTAGTCTGGAGAAGAGTACACAGTATCTGGTAACA [XGTACX_site2038] | 8.69 ± 0.54
AATATTTTAAAAAAAAGTACATTATATATATATGTT [XGTACX_site8073] | 8.44 ± 0.45
AAAGAAATGAAATATACACACATACATAAATACATA [CACACA_site6081] | 9.26 ± 0.35
ATAAAGGAAATTACAAGTACAAATAAGATAAAATAA [XGTACX_site4514] | 8.82 ± 0.67
AATTATATATTATAATGTACATATATATAACTATAC [XGTACX_site1865] | 8.74 ± 0.43
ATATATTTAAACTACACACGCATATCTTAGAAATAA [CACACA_site1272] | 8.9 ± 0.29
TATAAAAAAAGAGGAGGGATGGTATACTTGTGGTTT [TGCATGCA_negctrl_site49] | 8.95 ± 0.18
TTATTTTTGTTCATAGTGCATAGAATTTATACATAT | 8.8 ± 0.53
TTTTTTTTATGGTACACACACGCGTATGGTTGCACG [CACACA_site1877] | 9.38 ± 0.45
ATAGACAGCGCACAAACACACAAACACAGACCCCCA [CACACA_site4409] | 9.89 ± 0.4
ATTTATTTATTGGCACGTACAAATTTGTGTTTTCCA [XGTACX_site6978] | 8.96 ± 0.45
TTTTTTTCTTTTCAAACACACAATTGGTATATATCA [CACACA_site7542] | 8.78 ± 0.42
TTGTAAATTTCTGGTTATATATTTTATGTATATGTT [CACACA_negctrl_site1443] | 8.86 ± 0.44
ATATATATATATATATGTACTGAATAAAGAACAAAA [XGTACX_site5400] | 9.14 ± 0.2
CGTATATGACAAAAGCGTACGCATCAGCAGAAAAAT [XGTACX_site6248] | 9.16 ± 0.37
TAAAAAAAAACATATACACACAAAAACGTACACATA [CACACA_site1354] | 9.31 ± 0.3
TTTTTTTCTCACAATCGTACATAAATACATATATAT [XGTACX_site3150] | 8.8 ± 0.54
AGAATATGTTAAAAAAGTACATACTCTTTATATACG [XGTACX_site79] | 8.68 ± 0.46

Sequence | gcPBM binding intensity (ln)
AGGGGAAATAAAATATAAATTATCATATATATATAT [XGTACX_negctrl_site366] | 9.11 ± 0.25
TATATTTTTTAAACCACACACAATATAGAGTAGAAT [CACACA_site613] | 8.99 ± 0.4
TAATGTACATAAACCGCACACATATAAAAAAATAAA [CACACA_site2851] | 9.3 ± 0.55
AGAAATAAGAAATATACACACATATAAATATAAATA [CACACA_site7342] | 9.18 ± 0.43
AAAAAAAATGATAATATACACACTTATGGGAGAGCG [CACACA_site2516] | 8.88 ± 0.46
AGAATATTTAATTCAACACACATACATATTTATTAA [CACACA_site5318] | 8.73 ± 0.4
TATTGTATATACTATACACACACATACATACATACA [CACACA_site8172] | 9.55 ± 0.32
ATATATTTATATAAATGTACATACAGCACATTTATA [XGTACX_site4725] | 8.63 ± 0.33
CAAATATACATATGTAGTACATGTTGTAGATAATTT [XGTACX_site2790] | 9.07 ± 0.38
TACTTTATATAAAGATCAAAAAATAAATAATTATAA [TGCATGCA_negctrl_site446] | 8.29 ± 0.45
GAAGCCCTATGAAAAGTGCGGTTCATGAACAAAGAA [GTGCAC_site9828] | 9.12 ± 0.57
GGATAATATATTAGAACACACATATAGATGTAAAAA [CACACA_site6229] | 8.94 ± 0.49
TTATATTATACATACACACCCATATAATATGTTTTT [CACACA_site4636] | 8.95 ± 0.47
TTGTTTTTGTTCTTGGGTACTTAAATTATAAATGAT [XGTACX_site113] | 8.61 ± 0.42
TCTTATGAATATCCCCGTACACATATATTTCTTATA [XGTACX_site6877] | 8.83 ± 0.47
AGCTACACACCACAATGTACATAAATATATATGTGA [XGTACX_site1483] | 9.14 ± 0.47
TATTTGTAAATCGATACACACATATAGATTAATATA [CACACA_site6237] | 8.88 ± 0.35
ATAAGGAAGGGATGCACACAAAAGGGTACATAAGAA [CACACA_site4006] | 9.34 ± 0.61
TTTGAATCCTTATATACACACATTATAAAATATTAT [CACACA_site6406] | 8.73 ± 0.42
TAAAATGCAATCTGAACACACATATTTTTTTAATAT [CACACA_site6922] | 8.71 ± 0.42
